# Measurements reported in article PMC6212790.
# This is one part of the list. At the low end of the ranking the order means little.
# Molecular target: T1, GST-Rok (full length) (UniProt O34857)
# T1 sequence: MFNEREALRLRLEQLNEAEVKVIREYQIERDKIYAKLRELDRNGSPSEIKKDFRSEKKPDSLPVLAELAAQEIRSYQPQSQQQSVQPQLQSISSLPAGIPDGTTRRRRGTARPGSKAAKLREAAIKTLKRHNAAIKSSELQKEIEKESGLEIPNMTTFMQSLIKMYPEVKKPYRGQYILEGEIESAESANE
# Assay: protein binding microarray;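 also: rank score from −0.5 (least bound) to 0.5 (best bound)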
# Conditions: Rok is a gene silencer of Bacillus subtilis; high values mean tight binding; most listed sequences are background and not binding sites; double strand, one strand shown
row,Sequence,binding signal [E-score]
1,CAAAGTGC,-0.128
2,AGAAGATC,-0.079
3,GGTATCAA,0.0596
4,AGCTCTTA,0.0963
5,ACTGAGGC,-0.152
6,ATAACCAG,0.0111
7,CCAATTGC,0.145
8,CAAGATTG,-0.175
9,ATCGAATA,0.249
10,AGGCGTCC,-0.275
11,ATTAGACA,0.121
12,CAGGCCTA,-0.221
13,CCGTGAGA,-0.107
14,CTGTAGCC,-0.221
15,ATGAACTA,0.0684
16,CATAACCA,0.0243
17,GAACTATC,0.292
18,ATTGGAAC,-0.0148
19,GAGACCAC,-0.212
20,AGGTACAA,0.14
21,TACGTACA,0.262
22,CAGTAGAA,0.391
23,AATCATAA,0.21
24,CGCATGGA,-0.0759
25,AAAACTCC,0.0005

row,Sequence,binding signal [E-score]
1,TGGGGCAA,-0.127
2,CAAACGGC,-0.0035
3,GTATGGGA,-0.187
4,CCTCCAGG,-0.207
5,CCGCAGGC,-0.214
6,AAAGTGCT,-0.107
7,AGCCATCC,-0.175
8,GACCAAAC,-0.143
9,CCGTATCC,-0.0374
10,CGCTACAA,0.0368
11,AGGGGGTA,-0.29
12,ACTCCCCA,-0.424
13,CAATTGTA,0.339
14,ATGCAGTA,0.319
15,CCTGTTAG,0.032
16,TAACTACA,0.441
17,CACCGACG,-0.169
18,GAACACTC,-0.0422
19,CCCTTACG,-0.193
20,CACACATC,-0.147
21,AGTAGGAG,-0.135
22,ACATATGC,0.266
23,AATAGTAA,0.325
24,ATGATTAA,0.186
25,ACTAATGC,0.282

row,Sequence,binding signal [E-score]
1,GTCGAATA,0.054
2,AATTTACC,0.296
3,AGTCTCAC,-0.131
4,GCTTGTCC,-0.182
5,GACAAAGA,0.0143
6,CCAGGGGC,-0.433
7,AGGTATAC,0.172
8,ACTCTTCA,0.0587
9,ATAATCAA,0.223
10,GGAGGGAA,-0.283
11,ATGGCCTA,0.023
12,CTATAGGC,0.025
13,CAAGTCAC,-0.0913
14,ATCAAGAC,0.0172
15,ACCAGTGG,-0.3
16,CGCTGCCG,-0.314
17,CGTTGTAG,0.198
18,AACAATGT,0.154
19,CGTTCGGA,-0.107
20,CCGCCTAC,-0.142
21,TGCCGAAA,-0.0829
22,AAGGAGGT,-0.181
23,AAAAGCCT,-0.315
24,ATGCTGCG,-0.211
25,CGGATCAC,0.0266

row,Sequence,binding signal [E-score]
1,TAGACGAA,0.0666
2,ACGAAACA,0.0691
3,TACGAAAA,0.189
4,AGTCTGAT,0.155
5,CAACAAGC,-0.235
6,CTGACGTC,-0.0753
7,CAGTCCCC,-0.397
8,ACCATATC,0.133
9,GTTAAGGA,-0.0172
10,AGCCGACA,-0.246
11,GAGAACAA,-0.119
12,CGTGGAAA,-0.0946
13,ATCTCTTG,0.11
14,GCAGTCCC,-0.303
15,AACCGCGT,0.00983
16,ACTCTGAA,-0.0894
17,GGGATGTA,0.0786
18,AAGAGCAT,-0.0948
19,AGGCTGGG,-0.31
20,AATGCTAT,0.116
21,CTTACCTC,0.143
22,CCCAGAAA,-0.0961
23,ATGGGAAG,-0.191
24,GATACTTA,0.169
25,AGATAACA,0.241

row,Sequence,binding signal [E-score]
1,CGTAGGTC,-0.245
2,AGCATGAC,-0.238
3,CAAGGCTA,-0.206
4,ACAGTGGT,0.0798
5,ATTTTAGG,0.0264
6,ACTGTGCG,-0.0878
7,CGTTCAAC,-0.109
8,CGTCACGC,-0.145
9,ACAACATC,0.046
10,ACGAGCCT,-0.2
11,AAATTTAT,0.351
12,CTAAAGAC,-0.0682
13,AGTGATTG,-0.118
14,ATCGTAAG,0.0527
15,GTCGTTGA,0.00247
16,ACACTGCA,0.0824
17,CACGTCAG,-0.171
18,CGGTTCCC,-0.221
19,AACTGTAT,0.0995
20,GTTGCTGA,0.0486
21,TCCGTACA,0.0484
22,TCAACGAA,0.0593
23,AACACGAG,0.0551
24,AGAGCAGA,-0.0508
25,GAGGTCAA,-0.102

row,Sequence,binding signal [E-score]
1,AAACCAAC,0.0496
2,CTCAACAC,0.0075
3,CCAAGAGG,-0.238
4,CCCATTCA,-0.194
5,AGCTGACT,-0.0126
6,CGACATAG,-0.0763
7,ACTGTCAT,0.0522
8,CAGTCCGG,-0.216
9,CCCAATCA,-0.253
10,AGCATGAA,0.165
11,GGCTATAA,0.0645
12,AATCAGTC,-0.0113
13,CACCGGTC,-0.285
14,CGAAATCG,0.0939
15,AGATACCC,0.0127
16,CAACGAGG,-0.203
17,AACCACGC,-0.00353
18,GGCCACAA,-0.145
19,TGCAGGCA,-0.092
20,TAACGTGA,0.0823
21,CAAAACAG,0.0797
22,GATTCCCA,-0.0135
23,GATGTTGC,0.0134
24,AACGTCCG,-0.14
25,CACAGGGA,-0.179

row,Sequence,binding signal [E-score]
1,ATCTCGTA,0.144
2,ACATGCGC,-0.215
3,CAAAACAA,-0.114
4,GTTATTCA,0.0398
5,AAGCAAAG,-0.0562
6,ATTAAGAG,0.0989
7,GGGTCCCA,-0.347
8,AGACGTTG,-0.292
9,AGGCCCGC,-0.175
10,GGGAGTTA,-0.018
11,AGGCGCTG,-0.161
12,GATAGCTA,0.35
13,AGGTAGTG,0.0916
14,AGACAATG,-0.0492
15,CACGATTC,0.0284
16,TTTACAAA,0.3
17,ACCCGGTA,0.283
18,ACAGTCTC,-0.103
19,GGGATATA,0.221
20,AGTGGATC,0.0173
21,AGGTTCAT,-0.0409
22,GTATAGTA,0.316
